Source: the supplement of paper PMC4604168 (melanoma cell lines)
The other results are listed elsewhere or left out. Repeats are few or missing, and single values can be far off.

Experiments:
Assay in all cases: cell count relative to DMSO control; melanoma cells; higher = more viable cells
Conditions in all cases: library dose: standard library concentration; 72 h
G361 = tested on: G361
IPC-298 = tested on: IPC-298
IST-MEL1 = tested on: IST-MEL1
LB2518-MEL = tested on: LB2518-MEL
LOXIMVI = tested on: LOXIMVI
MEL-HO = tested on: MEL-HO
MZ2-MEL = tested on: MZ2-MEL
MeWo = tested on: MeWo
RPMI7951 = tested on: RPMI7951
RVH-421 = tested on: RVH-421
SkMel28 = tested on: SkMel28
SkMel2 = tested on: SkMel2
SkMel30 = tested on: SkMel30
SkMel5 = tested on: SkMel5
UACC257 = tested on: UACC257
UACC62 = tested on: UACC62
WM115 = tested on: WM115
WM1716 = tested on: WM1716
WM1745 = tested on: WM1745
WM3526 = tested on: WM3526
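Further: cells treated in 1,536-well plates, then fixed and DAPI-stained, with nuclei counted from automated high-throughput microscope images.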

SMILES	cell count (G361) [%]	cell count (IPC-298) [%]	cell count (IST-MEL1) [%]	cell count (LB2518-MEL) [%]	cell count (LOXIMVI) [%]	cell count (MEL-HO) [%]	cell count (MZ2-MEL) [%]	cell count (MeWo) [%]	cell count (RPMI7951) [%]	cell count (RVH-421) [%]	cell count (SkMel28) [%]	cell count (SkMel2) [%]	cell count (SkMel30) [%]	cell count (SkMel5) [%]	cell count (UACC257) [%]	cell count (UACC62) [%]	cell count (WM115) [%]	cell count (WM1716) [%]	cell count (WM1745) [%]	cell count (WM3526) [%]
CC(=O)O[C@@]12CO[C@@H]1C[C@H](O)[C@@]1(C)C(=O)[C@H](O)C3=C(C)[C@@H](OC(=O)[C@H](O)[C@@H](NC(=O)OC(C)(C)C)c4ccccc4)C[C@@](O)([C@@H](OC(=O)c4ccccc4)[C@H]21)C3(C)C [Docetaxel] + O=C(Nc1cccc(Cl)c1)Nc1ncc(CCNc2ncnc3ccsc23)s1 [SNS314] (first compound 0.0005 µM, partner dose 0.004 µM)	16.9	39	36	54.3	65.1	62.8	49	37.5	31.8	54.2	32.5	34.9	48.1	31.4	63.6	64.4	31.5	30.9	29.2	46.4
Nc1ccn([C@@H]2O[C@H](CO)[C@@H](O)C2(F)F)c(=O)n1 [gemcitabine] + C[C@@H]1CCN(C(=O)CC#N)C[C@@H]1N(C)c1ncnc2[nH]ccc12 [CP690550] (first compound 0.002 µM, partner dose 5 µM)	34.3	51.2	50.2	76.3	95.2	52	102	46.4	79.6	5.69	114	103	115	74.9	108	101	66	69.1	50.5	110
CC(=O)O[C@@]12CO[C@@H]1C[C@H](O)[C@@]1(C)C(=O)[C@H](O)C3=C(C)[C@@H](OC(=O)[C@H](O)[C@@H](NC(=O)OC(C)(C)C)c4ccccc4)C[C@@](O)([C@@H](OC(=O)c4ccccc4)[C@H]21)C3(C)C [Docetaxel] + O=C(O)[C@@H]1[O][Sb](=[O])([O][Sb]2(=[O])[O][C@H]([C@H](O)CO)[C@H](O)[C@H](C(=O)O)[O]2)[O][C@H]([C@H](O)CO)[C@@H]1O [stibogluconate] (first compound 0.0005 µM, partner dose 10 µM)	14.1	37.8	40.3	39.1	62.6	32.6	41.9	24.9	21.3	57.5	11.8	15.9	48.1	33.9	57.4	50.8	31.5	28.1	33.2	39
Nc1ncn([C@H]2C[C@H](O)[C@@H](CO)O2)c(=O)n1 [decitabine] + CN(NC(=O)CC(=O)NN(C)C(=S)c1ccccc1)C(=S)c1ccccc1 [STA4783] (first compound 0.5 µM, partner dose 0.03 µM)	67.1	56.3	69.4	86.1	102	79.2	89.6	54.7	101	81.7	94.5	104	95.1	81.4	89.3	64.6	62.5	66.2	120	90.3
CO[C@H]1C[C@@H]2CC[C@@H](C)[C@@](O)(O2)C(=O)C(=O)N2CCCC[C@H]2C(=O)O[C@H]([C@H](C)C[C@@H]2CC[C@@H](OCCO)[C@H](OC)C2)CC(=O)[C@H](C)/C=C(\C)[C@@H](O)[C@@H](OC)C(=O)[C@H](C)C[C@H](C)/C=C/C=C/C=C/1C [everolimus] + C#Cc1cccc(Nc2ncnc3cc(OCCOC)c(OCCOC)cc23)c1 [erlotinib] (first compound 0.1 µM, partner dose 4 µM)	46	37.8	63.6	49.8	72.1	56.9	60.1	46.5	52.3	87.4	36	59.8	53.2	41.5	95.3	51.8	48.1	71.1	65.1	52.4
Nc1nc(F)nc2c1ncn2[C@@H]1O[C@H](CO)[C@@H](O)[C@@H]1O [fludarabine] + CN(NC(=O)CC(=O)NN(C)C(=S)c1ccccc1)C(=S)c1ccccc1 [STA4783] (first compound 1 µM, partner dose 0.03 µM)	37.3	54.8	26.8	24.7	66.6	73.2	106	18.6	53.7	56.2	0.48	1.83	21.3	15.7	34	37.6	12.2	75.4	41.5	20.9
CC(=O)c1c(C)c2cnc(Nc3ccc(N4CCNCC4)cn3)nc2n(C2CCCC2)c1=O [palbociclib] + NC(=O)Nc1cc(-c2cccc(F)c2)sc1C(=O)N[C@H]1CCCNC1 [AZD7762] (first compound 0.2 µM, partner dose 0.1 µM)	75.2	77	69.5	65.7	63.4	76.3	73.5	53.2	44.8	76.5	55.2	66.1	65.9	50.1	69.1	64.4	48.7	37.7	66.2	49.1
Nc1ncn([C@H]2C[C@H](O)[C@@H](CO)O2)c(=O)n1 [decitabine] + CC1(C)NC(=O)N(c2ccc([N+](=O)[O-])c(C(F)(F)F)c2)C1=O [nilutamide] (first compound 0.5 µM, partner dose 5 µM)	83.2	66.4	68.6	69.5	90	87	94.2	73	76.5	83.5	76.6	92.9	106	71.7	99.9	73.4	59.8	60.7	149	90.8
CC(=O)O[C@@]12CO[C@@H]1C[C@H](O)[C@@]1(C)C(=O)[C@H](O)C3=C(C)[C@@H](OC(=O)[C@H](O)[C@@H](NC(=O)OC(C)(C)C)c4ccccc4)C[C@@](O)([C@@H](OC(=O)c4ccccc4)[C@H]21)C3(C)C [Docetaxel] + C[C@@H]1CCN(C(=O)CC#N)C[C@@H]1N(C)c1ncnc2[nH]ccc12 [CP690550] (first compound 0.0005 µM, partner dose 5 µM)	19.3	57.4	36.2	44.5	50.8	45.3	58.9	32.3	20.7	30.2	25.6	29.5	50.4	46.2	61.4	65.3	52	42.7	55.3	45
CC(=O)O[C@@]12CO[C@@H]1C[C@H](O)[C@@]1(C)C(=O)[C@H](O)C3=C(C)[C@@H](OC(=O)[C@H](O)[C@@H](NC(=O)OC(C)(C)C)c4ccccc4)C[C@@](O)([C@@H](OC(=O)c4ccccc4)[C@H]21)C3(C)C [Docetaxel] + C=CCNC1=C2C[C@@H](C)C[C@H](OC)[C@H](O)[C@@H](C)/C=C(\C)[C@H](OC(N)=O)[C@@H](OC)/C=C\C=C(/C)C(=O)NC(=CC1=O)C2=O [Tanespimycin] (first compound 0.0005 µM, partner dose 0.01 µM)	9.44	35.6	23.8	46.5	58	27	32.4	15.5	15.7	45.8	12	13.5	47.8	37.4	70.7	39	26.8	35.3	44.7	45.1
Nc1ccn([C@@H]2O[C@H](CO)[C@@H](O)C2(F)F)c(=O)n1 [gemcitabine] + C=CCn1c(=O)c2cnc(Nc3ccc(N4CCN(C)CC4)cc3)nc2n1-c1cccc(C(C)(C)O)n1 [MK1775] (first compound 0.002 µM, partner dose 0.1 µM)	23.1	31.8	28.1	40.3	38.1	41.1	65.4	27.3	19.9	44.6	60.3	84.2	86.6	33.6	102	51.7	53.8	42	26.8	82.6
CC(=O)O[C@@]12CO[C@@H]1C[C@H](O)[C@@]1(C)C(=O)[C@H](O)C3=C(C)[C@@H](OC(=O)[C@H](O)[C@@H](NC(=O)OC(C)(C)C)c4ccccc4)C[C@@](O)([C@@H](OC(=O)c4ccccc4)[C@H]21)C3(C)C [Docetaxel] + Cc1nc(Nc2ncc(C(=O)Nc3c(C)cccc3Cl)s2)cc(N2CCN(CCO)CC2)n1 [dasatanib] (first compound 0.0005 µM, partner dose 0.02 µM)	13.6	46.9	25.7	35	24.9	31.6	26.1	31.9	25.8	38.9	17.7	21.3	47.8	30	52.2	39.1	38.9	34	12.2	42.1
Nc1nc(F)nc2c1ncn2[C@@H]1O[C@H](CO)[C@@H](O)[C@@H]1O [fludarabine] + NCC(=O)Nc1ccc(-n2nc(C(F)(F)F)cc2-c2ccc3c(ccc4ccccc43)c2)cc1 [OSU03012] (first compound 1 µM, partner dose 5 µM)	73.6	48.8	54.6	64.8	61.9	70.3	95.5	71.4	67.1	71.1	2.53	1.95	10.7	27.6	21.1	61.6	67.1	87.5	69.1	18.9
CC(=O)c1c(C)c2cnc(Nc3ccc(N4CCNCC4)cn3)nc2n(C2CCCC2)c1=O [palbociclib] + NCC(=O)Nc1ccc(-n2nc(C(F)(F)F)cc2-c2ccc3c(ccc4ccccc43)c2)cc1 [OSU03012] (first compound 0.2 µM, partner dose 5 µM)	55.3	52.8	62.1	52.6	72.1	74.2	63.1	55.8	82.4	66.2	26.6	39	52.2	38.4	71.1	65.5	47.4	39	70.8	40.7
CC(=O)c1c(C)c2cnc(Nc3ccc(N4CCNCC4)cn3)nc2n(C2CCCC2)c1=O [palbociclib] + Cc1cc(N2CCOCC2)cc2[nH]c(-c3c(NC[C@@H](O)c4cccc(Cl)c4)cc[nH]c3=O)nc12 [BMS536924] (first compound 0.2 µM, partner dose 1 µM)	47.7	67.4	58.4	50.8	46.5	65.8	62.3	35.4	40.5	52.3	20.7	40.6	48.7	38.8	76.1	56.5	33.2	31.8	37.6	42.6
